# About 540 (0.36%) of roughly 150,000 compounds showed an effect of 50% or more. This is one part of the list.
# Test system: Plasmodium falciparum
# Test: Primary screen in NF54 nanoGlo assay, in single point, at 2uM, 72h; a lower Z score goes with more inhibition
# Assay type: functional, Erythrocyte
# Conditions: timepoint 72 hour
Compound,% Inhibition [%],Z score
O=C(c1ccc(CNS(=O)(=O)c2ccc3ccccc3c2)cc1)N1CCOCC1,-8,0.91
CCC(=O)N1CCc2ccc(OCc3nc(C(=O)NCc4ccc(F)cc4)cs3)cc2[C@@H]1c1ccc(C)cc1,-19,2.45
CCOc1ncccc1C(=O)N[C@@H](C)c1nc[nH]n1,-11,1.06
CCc1nnc(CNC(=O)Nc2cnn(C(C)C)c2)s1,0,-0.04
COCC(=O)N[C@@H]1CN(Cc2ccc(C)o2)CC[C@@H]1CO,-9,1.26
CCc1cc(CC(=O)N2CCCc3ccnc(N(C)C)c32)n(C)n1,1,-0.18
O=C(CCc1c[nH]c2ccccc12)Oc1ccc(F)cc1,6,-0.63
CCN(Cc1noc(C)n1)c1cccc(O)c1,-3,0.41
C=CCN1CCC(N[C@H](c2cccc(C(F)(F)F)c2)C2CC2)CC1,-16,1.4
CCOc1c(CN(C)C(=O)c2ccc([C@H]3CCCNC3)cc2)cccc1OC,-4,0.7
FC(F)[C@H](NCc1cn(C2CCC2)nn1)c1cccc(Cl)c1,-4,0.62
N#Cc1ccc2c(c1)CCCC2NCC1CCCS1(=O)=O (configuration not stated),16,-1.68
Cc1nc(C(=O)N2CCN(S(C)(=O)=O)CC2)c(Cc2ccccc2)s1,-14,1.77
Cn1ccnc1-c1ccccc1C(=O)N1CCC[C@H](CNC(=O)c2cccnc2)C1,7,-0.91
Cc1cc(F)ccc1N1CCC[C@H](NC(=O)c2cnn(C)c2)C1=O,-8,1.06
N#CCCN(Cc1ccc(Cl)cc1F)C[C@H]1CCOC1,-17,2.26
Cc1nn(C)c(C)c1OCCOCC(F)(F)F,-5,0.64
Cc1cc(C(=O)N2CCOC3(CCS(=O)(=O)CC3)C2)sc1C,-9,1.28
CC(C)(C)OC(=O)N1CCC[C@H]1CCC(=O)NC1CC=CC1,-1,0.12
COc1nn(C)cc1C(=O)N1CCC[C@H](Oc2cc(C)nc(C)n2)C1,19,-2.56
Cc1ccn2c(F)c(-c3ncnn3C(C)(C)C)nc2c1,-9,1.36
Cc1ccc(NC(=O)Cn2ccn3nc4c(c3c2=O)CCCCC4)cc1,6,-0.83

Compound,% Inhibition [%],Z score
Cn1c(CCNC(=O)[C@H](O)C2CCCCC2)n[nH]c1=O,-11,1.92
CCC[C@H](NC(=O)c1ccccc1)C(=O)O,-9,0.85
Cc1nc2cc(NC(=O)C(C)C)cc(C(=O)NCCN3CCNC3=O)c2n1Cc1ccccc1,7,-0.76
Cc1ccc(C2=NC3(CCCC3)NC2=O)cc1,32,-4.13
CCc1nnc([C@@H]2CN(Cc3cc(F)c(F)cc3F)CCO2)o1,2,-0.27
CCN(Cc1cnn(C(C)C)c1)C(=O)Cn1nnnc1N,-4,0.68
CCN(Cc1cnn(CC)c1)C(=O)c1cccc(-c2ncccc2F)c1,-7,1.31
NC(=O)c1cccc(/C=C/C2CCCCC2)n1,-10,1.58
O=C(CCc1nnc[nH]1)NC[C@H]1CCCN1Cc1ccccc1,-14,1.95
Cc1c[nH]c(CNC[C@]2(C)CC[C@H](C)C2(C)C)n1,12,-2.09
CCn1cc(CN(C)C(=O)CCCn2cccn2)cn1,-2,0.31
Cc1cccc(-c2noc(N3CCOCC3)c2CN(Cc2ccc(F)cc2)C(=O)c2ccc(F)cc2)c1,12,-1.48
O=c1c2nccnc2ccn1CCOCC(F)(F)C(F)F,-2,0.28
Cc1ccccc1Oc1ccc(N2C(=O)C3C4c5ccccc5C(c5ccccc54)C3(C)C2=O)cc1 (configuration not stated),0,0.06
Cc1cc(NC(=O)c2nc(-c3ccccc3)n(-c3ccccc3)n2)[nH]n1,-4,0.67
Cc1nc(-c2ccc([C@H](C)N(C)C)cc2)nn1C,6,-1.13
CCc1nc([C@@H]2CCCN2Cc2cn3c(C)cc(C)nc3n2)no1,-3,0.48
O=C(CCc1cc2n(n1)CCN(C1CCCCC1)C2)NCCO,-10,1.27
CCN1CCN(C(=O)c2cc(C)nc3onc(C)c23)[C@H]2CS(=O)(=O)C[C@H]21,-2,0.35
C[C@@H](C(=O)N(C)C)S(=O)(=O)NC1(c2ccc(F)cc2F)CCC1,1,-0.08
CCn1cc(-c2ccc(OC)cc2)cc1C(=O)N1CCCC1,-5,0.82
CC(CCNC(=O)N1CCOC(C(=O)O)C1)c1cccc(C(F)(F)F)c1 (configuration not stated),-7,0.92

Compound,% Inhibition [%],Z score
CC[C@@H]1NC(=O)N(CCCCOC)C1=O,1,-0.27
O=C(Cn1ccc2ncccc2c1=O)NCC1CCCCC1,-11,1.24
Cc1ccccc1OCC(=O)N[C@H]1CCOC[C@@H]1O,-1,0.18
Cc1cccc(NC(=O)Cn2cc(S(=O)(=O)N3CCCCC3)ccc2=O)c1,1,-0.19
COc1ccc(N2C(=O)CN(Cc3nc4ccccc4[nH]3)CC2(C)C)cc1,-8,1.48
CCCc1nnsc1C(=O)NCc1nc(-c2cnn(CC)c2)no1,-18,2.25
O=c1ccc(C(F)(F)F)cn1CC1CCC1,-19,1.87
Cc1cccc(C)c1N[C@@H](C)C(=O)NCc1cncn1C1CC1,8,-1.34
O=C(Nc1ccsc1)N[C@H]1C[C@H]2C(=O)NC[C@@H](CCC(=O)N3CCCCC3)N2C1,-7,1.13
CCn1cc(CCn2cnc(C#N)n2)cn1,-9,1.13
Cc1nn(C)c(C)c1[C@H](C)NCc1cc2cc(Cl)c(Cl)cc2[nH]1,28,-3.21
Cc1ccc(S(=O)(=O)N2CC(=O)N(c3ccc(Cl)cc3)[C@](C)(C(=O)NCCC(C)C)C2)cc1,-15,1.87
COC(=O)C1CCN(C(=O)N[C@@H]2CCO[C@H](c3ccncc3)C2)C1 (some centres not stated),2,-0.25
Cc1nc2c(c(=O)n1CC(=O)Nc1cccc(Cl)c1F)CCCC2,-5,0.68
Cc1nnc([C@@]23COC[C@@H]2CN(S(=O)(=O)Cc2ccc(C)c(F)c2)C3)o1,-12,1.5
CCn1ncc(C)c1NC(=O)[C@@H]1CCCCCN1C,-4,0.67
O=C(NCC1CCCCN1CC1CCOC1)c1ccccc1 (configuration not stated),-16,1.69
CC(C)N1CCCC[C@H]1C(=O)NCCc1nccn1C,-6,0.67
CC(C)N(CC(=O)N1CCc2sccc2[C@@H]1COc1ccccc1)C(=O)c1cccs1,-1,0.15
Cc1ncsc1CCCNC(=O)Cc1c[nH]c(=O)n(C)c1=O,-5,0.92
Cc1c(C(=O)NCCc2cccc(Cl)c2)nnn1C1CCNCC1,-13,2.03
Cc1nc(CNC(=O)N2CCN(CC(F)(F)F)[C@@H](C)C2)oc1C,-11,1.26

Compound,% Inhibition [%],Z score
CCOc1ccccc1CCNC(=O)c1ccn2nnnc2c1,-3,0.6
CCn1cnc2c(N3CCCOC3)ncnc21,-5,0.67
CC(C)(C)NC(=O)Nc1cccc(Cl)c1Cl,-6,1.13
Cc1ccc2c(c1C)-n1cccc1C1(CCN(S(=O)(=O)c3ccc(F)c(Cl)c3)CC1)N2,-7,0.88
COc1ncc(CN2CC[C@H](O)CC(C)(C)C2)cn1,-5,0.96
Cc1ccc(-c2ocnc2C(=O)Nc2cc(F)ccc2F)o1,1,-0.24
O=C([C@@H]1CCCO1)N1CCN(c2ccc3cc[nH]c3n2)CC1,-10,1.43
CCn1nc(C)c(CN2CCCC3(C2)OCCO3)c1C,-6,0.8
Cc1ccc(-c2nn(C)c(=O)c3c2CCCC3)cc1S(=O)(=O)NC1CCCCC1,-4,0.56
COC(=O)CN1CCCC(C(C)O)C1 (configuration not stated),-13,1.89
Cc1noc([C@@]23CN(C(=O)c4ccccc4)C[C@@H]2CN(C(=O)c2cncnc2)C3)n1,-12,1.56
CCC(CC)C(=O)N(Cc1ccc(OC)c(OC(C)C)c1)C1CCCC1,-8,1.01
CCc1cnc(N[C@@H](CC)c2ncccc2C)nc1,-16,2.55
COc1ccc(C(=O)OCC(=O)Nc2cc(C3CC3)nn2-c2ccccc2)c(O)c1,-7,1.34
CC[C@H](C)N(Cc1c(C)nn(-c2cccc(F)c2)c1N1CCN(CC)CC1)C(=O)CC(C)C,-4,0.53
CCCCC(=O)N1CCc2[nH]nc(C(=O)N3CCN(c4ccc(F)cc4)CC3)c2C1,-20,1.94
CCOc1ccc(CNS(=O)(=O)c2ccc(-c3ccno3)cc2OC)cc1OC,-19,1.7
NCC#CCOc1cccc(C(F)(F)F)c1,-10,1.11
Cn1nc(C(=O)Nc2ccccc2OCC(F)F)cc1C1CC1,3,-0.54
Cc1nn(CC(=O)N[C@@H](C)c2nncn2C)c(=O)n1-c1ccc2c(c1)OCO2,-9,1.1

# From ChEMBL document CHEMBL4888484, “Replenishing the malaria drug discovery pipeline: Screening and hit evaluation of the MMV Hit Generation Library 1 (HGL1) against asexual blood stage Plasmodium falciparum ,using a nano luciferase reporter read-out” (2022)
